Measured values published in article PMC4587736.
No constants are given. Whether binding was seen depends on the method and setting. For some assays here: In cells and extracts the contact can be indirect. Some results given as binding are weak or reduced against the parent protein; the word gives no strength. Where a sequence is shown, tags or fusion partners need not be part of it. Each block holds one binder with its values, some of them ahead of it.

Tests used:
[1] = biological target: T1, N-terminally HA-tagged PRO11 (pHA11) (Sordaria macrospora) (UniProt Q70M86); experiment: co-IP; cell extracts of S. macrospora co-expressing HA-PRO11 and FLAG-SmKIN3; with thiol crosslinker BMH 0.2 mM, 2 h at 4°C, stopped with 25 mM DTT; IP-HA and IP-FLAG, Western blot
T1 sequence: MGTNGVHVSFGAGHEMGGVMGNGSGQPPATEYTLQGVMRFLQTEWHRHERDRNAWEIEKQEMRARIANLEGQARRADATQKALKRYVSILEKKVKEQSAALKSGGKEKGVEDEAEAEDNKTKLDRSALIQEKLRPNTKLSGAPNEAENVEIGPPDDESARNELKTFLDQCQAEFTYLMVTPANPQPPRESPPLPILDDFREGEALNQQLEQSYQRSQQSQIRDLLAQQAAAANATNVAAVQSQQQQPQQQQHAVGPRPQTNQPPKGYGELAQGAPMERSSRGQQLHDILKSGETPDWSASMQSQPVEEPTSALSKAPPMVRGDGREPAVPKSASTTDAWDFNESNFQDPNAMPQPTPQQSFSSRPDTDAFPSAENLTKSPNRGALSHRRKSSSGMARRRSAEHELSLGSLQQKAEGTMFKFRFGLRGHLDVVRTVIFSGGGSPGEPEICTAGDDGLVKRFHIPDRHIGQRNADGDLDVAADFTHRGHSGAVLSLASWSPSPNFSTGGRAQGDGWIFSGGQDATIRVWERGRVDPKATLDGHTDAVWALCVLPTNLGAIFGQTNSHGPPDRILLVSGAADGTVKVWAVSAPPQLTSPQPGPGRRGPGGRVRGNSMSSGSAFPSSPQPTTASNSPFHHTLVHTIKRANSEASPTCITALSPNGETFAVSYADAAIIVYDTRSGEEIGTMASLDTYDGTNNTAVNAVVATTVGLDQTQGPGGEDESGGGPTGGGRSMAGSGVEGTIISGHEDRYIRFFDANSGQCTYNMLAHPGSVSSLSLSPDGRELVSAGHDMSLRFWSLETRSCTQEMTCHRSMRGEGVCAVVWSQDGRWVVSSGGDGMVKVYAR

[2] = biological target: T2, SmKIN24 fused to the GAL4 DNA-binding domain (pBD-SmKIN24) (Sordaria macrospora) (UniProt F7VQV9); experiment: two-hybrid; Matchmaker two-hybrid system 3; kinases fused to GAL4 binding domain (pGBKT7, Y187), partners fused to GAL4 activation domain (pGADT7, AH109); mated diploids, drop plate assay on SD without leu, trp and ade
T2 sequence: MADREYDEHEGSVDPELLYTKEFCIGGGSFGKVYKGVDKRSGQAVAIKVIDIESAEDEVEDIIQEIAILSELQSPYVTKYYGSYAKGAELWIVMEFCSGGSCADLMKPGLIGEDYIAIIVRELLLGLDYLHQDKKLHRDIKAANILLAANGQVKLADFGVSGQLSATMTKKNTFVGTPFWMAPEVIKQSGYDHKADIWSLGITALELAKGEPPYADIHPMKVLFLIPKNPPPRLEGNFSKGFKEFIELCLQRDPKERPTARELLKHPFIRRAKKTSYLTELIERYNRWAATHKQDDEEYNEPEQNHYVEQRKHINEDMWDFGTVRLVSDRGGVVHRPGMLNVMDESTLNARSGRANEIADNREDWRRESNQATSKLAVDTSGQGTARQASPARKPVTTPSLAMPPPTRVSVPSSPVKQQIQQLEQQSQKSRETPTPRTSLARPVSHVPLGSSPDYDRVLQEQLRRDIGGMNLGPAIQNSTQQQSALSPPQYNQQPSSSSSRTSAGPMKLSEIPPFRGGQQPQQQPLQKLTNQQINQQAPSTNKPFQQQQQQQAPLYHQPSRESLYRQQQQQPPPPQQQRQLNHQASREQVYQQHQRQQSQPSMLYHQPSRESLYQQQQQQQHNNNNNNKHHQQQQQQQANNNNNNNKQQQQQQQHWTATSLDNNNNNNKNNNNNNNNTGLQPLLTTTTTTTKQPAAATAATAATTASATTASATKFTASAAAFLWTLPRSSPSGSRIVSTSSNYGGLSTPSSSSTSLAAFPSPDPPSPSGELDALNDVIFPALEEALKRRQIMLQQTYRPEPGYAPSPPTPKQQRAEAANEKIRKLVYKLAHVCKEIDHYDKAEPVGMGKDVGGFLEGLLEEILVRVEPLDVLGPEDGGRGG

[3] = biological target: T3, SmKIN3 fused to the GAL4 DNA-binding domain (pBD-SmKIN3) (Sordaria macrospora) (UniProt F7VYS5); experiment: as above
T3 sequence: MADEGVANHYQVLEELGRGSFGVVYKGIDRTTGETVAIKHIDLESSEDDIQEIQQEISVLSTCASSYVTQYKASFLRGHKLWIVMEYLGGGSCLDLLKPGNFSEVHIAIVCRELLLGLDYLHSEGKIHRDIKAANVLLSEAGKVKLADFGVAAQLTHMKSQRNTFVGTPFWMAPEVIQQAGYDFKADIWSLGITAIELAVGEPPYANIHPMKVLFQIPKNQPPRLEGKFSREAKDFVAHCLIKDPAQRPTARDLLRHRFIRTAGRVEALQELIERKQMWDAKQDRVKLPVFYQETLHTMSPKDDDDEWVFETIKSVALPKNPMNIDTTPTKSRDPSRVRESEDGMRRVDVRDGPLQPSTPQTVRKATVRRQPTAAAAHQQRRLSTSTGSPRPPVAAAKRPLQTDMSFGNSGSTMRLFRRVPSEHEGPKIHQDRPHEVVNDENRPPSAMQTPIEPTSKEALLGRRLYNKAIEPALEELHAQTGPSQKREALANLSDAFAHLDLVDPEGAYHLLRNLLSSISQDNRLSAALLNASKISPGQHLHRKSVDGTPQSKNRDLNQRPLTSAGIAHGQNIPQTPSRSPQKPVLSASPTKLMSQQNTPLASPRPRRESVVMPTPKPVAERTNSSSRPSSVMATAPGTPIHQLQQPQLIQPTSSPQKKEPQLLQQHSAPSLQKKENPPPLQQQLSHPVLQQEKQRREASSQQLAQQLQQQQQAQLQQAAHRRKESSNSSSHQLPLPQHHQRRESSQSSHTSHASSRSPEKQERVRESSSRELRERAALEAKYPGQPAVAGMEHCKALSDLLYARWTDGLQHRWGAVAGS

[4] = biological target: T4, N-terminally FLAG-tagged SmKIN3 (pFLAG-SmKIN3) (Sordaria macrospora) (UniProt F7VYS5); experiment: co-IP; cell extracts of S. macrospora co-expressing HA-PRO11 and FLAG-SmKIN3; without crosslinker added; Western blot
T4 sequence: T3 sequence

[5] = biological target: T4, N-terminally FLAG-tagged SmKIN3 (pFLAG-SmKIN3) (Sordaria macrospora); experiment: co-IP; cell extracts of S. macrospora co-expressing HA-PRO11 and FLAG-SmKIN3; with thiol crosslinker BMH 0.2 mM, 2 h at 4°C, stopped with 25 mM DTT; IP-HA and IP-FLAG, Western blot

- binding [1]: binds weakly
B1: N-terminally FLAG-tagged SmKIN3 (pFLAG-SmKIN3) (enzyme, UniProt F7VYS5 1-820)
chain: T3 sequence

- binding [2]: binds
- binding [3]: binds
B2: full-length PRO11 fused to the GAL4 activation domain (pAD11FL) (protein, UniProt Q70M86 1-845)
chain: T1 sequence

- binding [5]: binds weakly
B3: N-terminally HA-tagged PRO11 (pHA11) (protein, UniProt Q70M86 1-845)
chain: T1 sequence
- binding [4]: no binding (condition: without crosslinker added)
